The text below walks through data of the GPR68 mutational scans of Howard et al. (2025).

First the molecules themselves.
B1: GPR68, Q15743 (parent)
chain: MGNITADNSSMSCTIDHTIHQTLAPVVYVTVLVVGFPANCLSLYFGYLQIKARNELGVYLCNLTVADLFYICSLPFWLQYVLQHDNWSHGDLSCQVCGILLYENIYISVGFLCCISVDRYLAVAHPFRFHQFRTLKAAVGVSVVIWAKELLTSIYFLMHEEVIEDENQHRVCFEHYPIQAWQRAINYYRFLVGFLFPICLLLASYQGILRAVRRSHGTQKSRKDQIQRLVLSTVVIFLACFLPYHVLLLVRSVWEASCDFAKGVFNAYHFSLLLTSFNCVADPVLYCFVSETTHRDLARLRGACLAFLTCSRTGRAREAYPLGAPEASGKSGAQGEEPELLTKLHPAFQTPNSPGSGGFPTGRLA

In data set [1] the parent is B1. Put plainly: cAMP reporter score (Enrich2 score, wild type = 0); higher = more signal; HEK293T, FACS bins.
Variants of B1 are the subject of data set [2]. The data set is described as follows: surface expression score (Enrich2 score, wild type = 0); higher = more signal; HEK293T, FACS bins.

The least precise scores are not listed. Not listed are two conditions whose scores span a narrow range. Read del as a deletion of the residues named and ins as an insertion between two positions. For some of these results: The concentration of ogerin is not given here.

Consider L300G, for which the cAMP reporter score in data set [1] (pH 5.5) was -0.428; in data set [1] (pH 6), -0.411; in data set [1] (pH 6, modulator: ogerin) it was -0.838; in data set [1] (pH 6.5, modulator: ogerin), -0.896. Further, in data set [2], the surface expression score is -0.877.
Taken in the same sequence, the figures for L300V were -0.339, 0.026, -0.55, -1.24 and -0.493.
On to L300N, for which the cAMP reporter score in data set [1] (pH 5.5) was -0.53; in data set [1] (pH 6), -0.98; in data set [1] (pH 6, modulator: ogerin) it was -0.845; in data set [1] (pH 6.5, modulator: ogerin), -1.02. The surface expression score in data set [2] was found to be 0.665.
Turning to L300A, the cAMP reporter score was -0.422 in data set [1] (pH 5.5); -0.626 in data set [1] (pH 6, modulator: ogerin); -0.419 in data set [1] (pH 6.5, modulator: ogerin). In addition, in data set [2], the surface expression score is -0.302.
In the case of L300T, the cAMP reporter score in data set [1] (pH 5.5) was 0.025; in data set [1] (pH 6) it was -0.961; in data set [1] (pH 6, modulator: ogerin) it was -0.825; in data set [1] (pH 6.5, modulator: ogerin) it was -0.628. Further, in data set [2], the surface expression score is 0.009.
Turning to L300F, the cAMP reporter score was -0.61 in data set [1] (pH 5.5); 0.653 in data set [1] (pH 6); -0.645 in data set [1] (pH 6, modulator: ogerin); 1.29 in data set [1] (pH 6.5, modulator: ogerin). In addition, in data set [2], the surface expression score came to 0.123.
In the same order, the values of L300C are 0.291, 0.192, 0.005, -0.278 and -0.127.
As for L300Y, the cAMP reporter score was 1.26 in data set [1] (pH 5.5); 0.158 in data set [1] (pH 6); 0.847 in data set [1] (pH 6, modulator: ogerin); 0.196 in data set [1] (pH 6.5, modulator: ogerin). Besides, the surface expression score in data set [2] was determined as 0.401.
As to L305_A306del, the cAMP reporter score in data set [1] (pH 5.5) was 0.272; in data set [1] (pH 6) it was 0.021; in data set [1] (pH 6, modulator: ogerin), 0.173; in data set [1] (pH 6.5, modulator: ogerin), -0.211. The surface expression score in data set [2] was -0.282.
L305_F307del: the cAMP reporter score in data set [1] (pH 5.5) was 0.808; in data set [1] (pH 6), -0.227; in data set [1] (pH 6, modulator: ogerin) it was 1.23; in data set [1] (pH 6.5, modulator: ogerin), -0.93. In data set [2], the surface expression score was -0.333.
In the case of S328D, the cAMP reporter score in data set [1] (pH 5.5) was 0.616; in data set [1] (pH 6), -0.286; in data set [1] (pH 6, modulator: ogerin), 0.576; in data set [1] (pH 6.5, modulator: ogerin), 0.396. Besides, in data set [2], the surface expression score turned out to be 0.227.
In the same order, the values of S328F are -0.097, 0.344, -0.215, -0.09 and 0.026.
Turning to S328G, the cAMP reporter score in data set [1] (pH 5.5) is 0.571; in data set [1] (pH 6), 0.351; in data set [1] (pH 6, modulator: ogerin) it was 0.963; in data set [1] (pH 6.5, modulator: ogerin), 1. In data set [2], the surface expression score is 0.348.
As to S328H, the cAMP reporter score in data set [1] (pH 5.5) was determined as 0.055; in data set [1] (pH 6), 0.667; in data set [1] (pH 6, modulator: ogerin), 0.425. In addition, in data set [2], the surface expression score was determined as 1.41.
As to S328A, the cAMP reporter score in data set [1] (pH 5.5) is 0.239; in data set [1] (pH 6, modulator: ogerin), 0.707. The surface expression score in data set [2] stood at 0.497.
With S328C, the cAMP reporter score in data set [1] (pH 5.5) was determined as 1.31; in data set [1] (pH 6, modulator: ogerin) it was 0.755; in data set [1] (pH 6.5, modulator: ogerin) it was 0.621. Further, the surface expression score in data set [2] amounted to 1.33.
In the case of S328I, the cAMP reporter score in data set [1] (pH 5.5) was determined as 2.84; in data set [1] (pH 6), 1.2; in data set [1] (pH 6, modulator: ogerin), 2.12; in data set [1] (pH 6.5, modulator: ogerin), 1.53. In addition, the surface expression score in data set [2] amounted to 0.977.
S328E: the cAMP reporter score in data set [1] (pH 5.5) was 1.68; in data set [1] (pH 6), 0.006; in data set [1] (pH 6, modulator: ogerin) it was 1.15; in data set [1] (pH 6.5, modulator: ogerin), 0.856. Also, the surface expression score in data set [2] was 1.18.
With C310_R312del, the cAMP reporter score in data set [1] (pH 5.5) was -0.828; in data set [1] (pH 6), -0.751; in data set [1] (pH 6, modulator: ogerin), -1.4; in data set [1] (pH 6.5, modulator: ogerin), -0.91. In data set [2], the surface expression score is -1.16.
Taken in the same sequence, the figures for L305_A306insGSG were 1.18, -0.595, 0.965, 0.152 and -0.131.
For A316_R317insG, the cAMP reporter score in data set [1] (pH 5.5) is 0.638; in data set [1] (pH 6), -0.33; in data set [1] (pH 6, modulator: ogerin) it was 0.444; in data set [1] (pH 6.5, modulator: ogerin) it was 0.432. The surface expression score in data set [2] is 0.047.
For the variant G302_C304del, the cAMP reporter score in data set [1] (pH 5.5) is -0.296; in data set [1] (pH 6), -0.65; in data set [1] (pH 6, modulator: ogerin), -0.408; in data set [1] (pH 6.5, modulator: ogerin), -0.754. Moreover, the surface expression score in data set [2] is -1.1.
Turning to A298_R299insGS, the cAMP reporter score in data set [1] (pH 5.5) was -1.07; in data set [1] (pH 6), -0.515; in data set [1] (pH 6, modulator: ogerin), -0.864; in data set [1] (pH 6.5, modulator: ogerin) it was -1.36. Also, in data set [2], the surface expression score is -0.309.
As to A298_L300del, the cAMP reporter score is -0.4 in data set [1] (pH 5.5); -0.183 in data set [1] (pH 6); -0.569 in data set [1] (pH 6, modulator: ogerin); -0.329 in data set [1] (pH 6.5, modulator: ogerin). Moreover, the surface expression score in data set [2] came out at 0.895.
In the case of A319_P321del, the cAMP reporter score in data set [1] (pH 5.5) was 1.12; in data set [1] (pH 6, modulator: ogerin), 2.37; in data set [1] (pH 6.5, modulator: ogerin) it was 1.64. Besides, the surface expression score in data set [2] came out at 1.62.
E326del: the cAMP reporter score was 1.18 in data set [1] (pH 5.5); 0.113 in data set [1] (pH 6); 1.56 in data set [1] (pH 6, modulator: ogerin). The surface expression score in data set [2] is 0.732.
Take R317_E318insG: the cAMP reporter score in data set [1] (pH 5.5) came out at 0.735; in data set [1] (pH 6), 0.577; in data set [1] (pH 6, modulator: ogerin) it was 0.603; in data set [1] (pH 6.5, modulator: ogerin), 0.317. In addition, in data set [2], the surface expression score stood at 0.537.
Taken in the same sequence, the figures for A303del were -1.03, -0.66, -0.993, -0.802 and -1.81.
As to P325_E326insG, the cAMP reporter score in data set [1] (pH 5.5) was 0.487; in data set [1] (pH 6) it was -0.142; in data set [1] (pH 6, modulator: ogerin), 1.39; in data set [1] (pH 6.5, modulator: ogerin), 1.05. In addition, the surface expression score in data set [2] is 0.834.
Taken in the same sequence, the figures for T309_S311del were 0.659, 0.825, 0.599, 0.955 and 0.026.
Regarding R299_L300insGS, the cAMP reporter score in data set [1] (pH 5.5) is -1.26; in data set [1] (pH 6) it was -0.476; in data set [1] (pH 6, modulator: ogerin), -1.6; in data set [1] (pH 6.5, modulator: ogerin), -1.32. For the same variant, the surface expression score in data set [2] is -0.629.
